Measured values published in paper PMC7044329.
No constants are given. Whether binding was seen depends on the method and setting. Binding seen in cells or lysates may run through a third protein. Some binding calls cover weakened binding; strength is not graded here. For some of these results: Tags and fused reporters may be left off the sequences shown.

Protein sequences, listed by entry. Tags and fused reporters are not part of them.
UniProt Q9Y2F5: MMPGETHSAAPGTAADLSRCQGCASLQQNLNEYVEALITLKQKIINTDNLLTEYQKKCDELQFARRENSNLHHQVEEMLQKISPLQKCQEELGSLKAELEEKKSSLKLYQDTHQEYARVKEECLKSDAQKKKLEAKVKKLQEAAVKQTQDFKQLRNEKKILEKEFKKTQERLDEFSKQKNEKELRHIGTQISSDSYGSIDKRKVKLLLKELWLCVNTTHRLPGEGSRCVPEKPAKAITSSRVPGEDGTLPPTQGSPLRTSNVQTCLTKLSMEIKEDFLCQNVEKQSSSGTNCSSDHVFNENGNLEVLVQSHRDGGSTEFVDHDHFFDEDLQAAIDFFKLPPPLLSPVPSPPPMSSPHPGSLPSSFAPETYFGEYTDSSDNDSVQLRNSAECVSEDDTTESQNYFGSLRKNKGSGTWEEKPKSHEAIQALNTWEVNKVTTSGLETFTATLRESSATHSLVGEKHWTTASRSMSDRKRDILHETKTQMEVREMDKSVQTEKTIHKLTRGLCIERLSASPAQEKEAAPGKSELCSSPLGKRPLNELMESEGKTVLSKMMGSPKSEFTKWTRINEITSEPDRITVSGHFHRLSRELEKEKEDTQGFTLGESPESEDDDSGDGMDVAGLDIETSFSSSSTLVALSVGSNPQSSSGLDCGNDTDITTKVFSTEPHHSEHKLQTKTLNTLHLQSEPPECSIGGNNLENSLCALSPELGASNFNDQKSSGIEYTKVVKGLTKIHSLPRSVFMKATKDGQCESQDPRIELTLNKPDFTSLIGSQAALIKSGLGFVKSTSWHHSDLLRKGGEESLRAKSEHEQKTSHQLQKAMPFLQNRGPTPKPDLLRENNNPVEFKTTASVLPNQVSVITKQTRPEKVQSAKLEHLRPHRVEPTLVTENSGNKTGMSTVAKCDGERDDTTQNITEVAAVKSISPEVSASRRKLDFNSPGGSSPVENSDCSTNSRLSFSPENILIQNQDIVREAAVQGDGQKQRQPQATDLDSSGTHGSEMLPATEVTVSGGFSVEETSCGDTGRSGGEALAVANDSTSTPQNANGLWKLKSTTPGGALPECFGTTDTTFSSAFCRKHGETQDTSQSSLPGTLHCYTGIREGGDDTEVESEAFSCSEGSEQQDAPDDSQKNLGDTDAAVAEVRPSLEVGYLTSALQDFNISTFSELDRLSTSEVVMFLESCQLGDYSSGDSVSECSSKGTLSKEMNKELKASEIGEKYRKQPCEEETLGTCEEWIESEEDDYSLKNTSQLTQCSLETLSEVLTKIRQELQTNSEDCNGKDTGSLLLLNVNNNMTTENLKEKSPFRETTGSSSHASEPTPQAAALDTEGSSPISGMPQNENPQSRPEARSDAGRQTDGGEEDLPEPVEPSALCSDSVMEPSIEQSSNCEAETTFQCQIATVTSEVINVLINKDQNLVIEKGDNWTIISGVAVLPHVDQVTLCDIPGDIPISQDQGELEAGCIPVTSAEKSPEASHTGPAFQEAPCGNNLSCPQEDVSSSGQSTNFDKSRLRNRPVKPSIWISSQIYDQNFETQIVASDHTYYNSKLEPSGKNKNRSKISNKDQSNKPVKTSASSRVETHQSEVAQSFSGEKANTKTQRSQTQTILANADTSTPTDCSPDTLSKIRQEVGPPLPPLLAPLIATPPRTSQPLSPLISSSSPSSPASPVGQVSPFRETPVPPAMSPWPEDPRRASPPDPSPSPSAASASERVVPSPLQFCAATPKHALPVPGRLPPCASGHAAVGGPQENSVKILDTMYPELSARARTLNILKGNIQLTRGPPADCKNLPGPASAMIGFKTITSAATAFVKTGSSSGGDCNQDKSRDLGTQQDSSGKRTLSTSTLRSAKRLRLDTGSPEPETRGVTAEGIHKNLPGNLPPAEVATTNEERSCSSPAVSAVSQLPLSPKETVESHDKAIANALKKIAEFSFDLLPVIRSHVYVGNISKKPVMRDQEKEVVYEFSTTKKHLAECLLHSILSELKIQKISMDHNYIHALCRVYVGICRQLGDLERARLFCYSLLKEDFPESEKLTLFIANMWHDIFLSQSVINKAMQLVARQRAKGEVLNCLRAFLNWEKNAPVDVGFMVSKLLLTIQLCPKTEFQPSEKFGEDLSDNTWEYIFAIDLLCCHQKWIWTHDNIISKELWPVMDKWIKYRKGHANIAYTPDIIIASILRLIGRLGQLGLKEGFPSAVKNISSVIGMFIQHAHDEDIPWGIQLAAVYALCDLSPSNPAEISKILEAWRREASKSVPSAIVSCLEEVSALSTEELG
UniProt P42568: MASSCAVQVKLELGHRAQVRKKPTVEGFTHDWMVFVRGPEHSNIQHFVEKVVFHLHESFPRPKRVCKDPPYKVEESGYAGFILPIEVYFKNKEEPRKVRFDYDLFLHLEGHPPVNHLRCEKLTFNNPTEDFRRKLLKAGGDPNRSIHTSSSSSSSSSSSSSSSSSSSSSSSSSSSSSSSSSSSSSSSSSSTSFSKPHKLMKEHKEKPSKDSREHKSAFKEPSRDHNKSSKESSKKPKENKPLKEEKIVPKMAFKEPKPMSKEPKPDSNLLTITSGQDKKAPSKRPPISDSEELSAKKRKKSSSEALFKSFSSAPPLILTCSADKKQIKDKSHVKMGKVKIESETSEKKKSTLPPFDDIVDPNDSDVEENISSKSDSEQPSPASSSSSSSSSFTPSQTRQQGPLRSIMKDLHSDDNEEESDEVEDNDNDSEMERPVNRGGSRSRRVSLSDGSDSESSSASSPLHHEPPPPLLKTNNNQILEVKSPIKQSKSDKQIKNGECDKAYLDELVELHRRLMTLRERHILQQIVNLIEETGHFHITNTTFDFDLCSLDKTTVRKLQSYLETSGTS
UniProt Q15648: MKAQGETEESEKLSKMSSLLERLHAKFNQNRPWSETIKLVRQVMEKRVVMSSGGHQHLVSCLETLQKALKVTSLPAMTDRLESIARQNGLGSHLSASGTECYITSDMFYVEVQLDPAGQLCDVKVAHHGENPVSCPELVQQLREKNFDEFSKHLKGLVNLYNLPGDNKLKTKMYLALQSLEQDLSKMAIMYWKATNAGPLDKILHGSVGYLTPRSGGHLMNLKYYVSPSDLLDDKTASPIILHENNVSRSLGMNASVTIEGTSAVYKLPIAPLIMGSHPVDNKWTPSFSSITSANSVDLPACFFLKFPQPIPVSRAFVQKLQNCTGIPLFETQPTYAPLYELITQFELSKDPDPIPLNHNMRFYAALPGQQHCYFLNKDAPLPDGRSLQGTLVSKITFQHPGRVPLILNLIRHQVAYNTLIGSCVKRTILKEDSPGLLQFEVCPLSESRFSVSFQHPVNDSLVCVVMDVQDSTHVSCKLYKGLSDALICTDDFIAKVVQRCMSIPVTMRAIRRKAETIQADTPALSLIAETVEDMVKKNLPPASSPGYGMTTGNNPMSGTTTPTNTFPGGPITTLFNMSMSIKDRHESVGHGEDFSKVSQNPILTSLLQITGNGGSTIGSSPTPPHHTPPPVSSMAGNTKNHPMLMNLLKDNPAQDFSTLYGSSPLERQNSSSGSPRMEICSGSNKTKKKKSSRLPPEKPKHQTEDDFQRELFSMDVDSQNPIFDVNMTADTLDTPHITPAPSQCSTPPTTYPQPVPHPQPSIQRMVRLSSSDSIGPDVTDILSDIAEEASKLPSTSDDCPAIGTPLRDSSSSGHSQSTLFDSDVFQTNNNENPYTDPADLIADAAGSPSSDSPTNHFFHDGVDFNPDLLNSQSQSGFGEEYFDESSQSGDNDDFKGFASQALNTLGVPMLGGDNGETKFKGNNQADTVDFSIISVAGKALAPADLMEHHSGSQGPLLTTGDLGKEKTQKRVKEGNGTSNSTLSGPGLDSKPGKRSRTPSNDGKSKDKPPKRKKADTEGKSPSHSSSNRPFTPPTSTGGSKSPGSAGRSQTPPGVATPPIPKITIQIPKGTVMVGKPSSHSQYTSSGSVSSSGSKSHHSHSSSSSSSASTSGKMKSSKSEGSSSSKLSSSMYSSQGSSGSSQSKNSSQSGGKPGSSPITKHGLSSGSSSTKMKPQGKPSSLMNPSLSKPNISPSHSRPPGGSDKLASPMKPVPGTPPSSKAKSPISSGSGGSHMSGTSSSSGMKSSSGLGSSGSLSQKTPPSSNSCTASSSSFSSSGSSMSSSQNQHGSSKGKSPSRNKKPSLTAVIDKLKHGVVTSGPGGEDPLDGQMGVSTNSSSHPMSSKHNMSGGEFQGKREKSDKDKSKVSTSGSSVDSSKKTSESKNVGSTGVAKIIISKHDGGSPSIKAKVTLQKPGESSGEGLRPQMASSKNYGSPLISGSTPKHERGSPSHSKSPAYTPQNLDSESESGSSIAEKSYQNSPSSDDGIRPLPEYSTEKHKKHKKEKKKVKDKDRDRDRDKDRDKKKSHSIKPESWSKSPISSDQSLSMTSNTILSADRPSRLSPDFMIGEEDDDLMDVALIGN
UniProt Q96HW7: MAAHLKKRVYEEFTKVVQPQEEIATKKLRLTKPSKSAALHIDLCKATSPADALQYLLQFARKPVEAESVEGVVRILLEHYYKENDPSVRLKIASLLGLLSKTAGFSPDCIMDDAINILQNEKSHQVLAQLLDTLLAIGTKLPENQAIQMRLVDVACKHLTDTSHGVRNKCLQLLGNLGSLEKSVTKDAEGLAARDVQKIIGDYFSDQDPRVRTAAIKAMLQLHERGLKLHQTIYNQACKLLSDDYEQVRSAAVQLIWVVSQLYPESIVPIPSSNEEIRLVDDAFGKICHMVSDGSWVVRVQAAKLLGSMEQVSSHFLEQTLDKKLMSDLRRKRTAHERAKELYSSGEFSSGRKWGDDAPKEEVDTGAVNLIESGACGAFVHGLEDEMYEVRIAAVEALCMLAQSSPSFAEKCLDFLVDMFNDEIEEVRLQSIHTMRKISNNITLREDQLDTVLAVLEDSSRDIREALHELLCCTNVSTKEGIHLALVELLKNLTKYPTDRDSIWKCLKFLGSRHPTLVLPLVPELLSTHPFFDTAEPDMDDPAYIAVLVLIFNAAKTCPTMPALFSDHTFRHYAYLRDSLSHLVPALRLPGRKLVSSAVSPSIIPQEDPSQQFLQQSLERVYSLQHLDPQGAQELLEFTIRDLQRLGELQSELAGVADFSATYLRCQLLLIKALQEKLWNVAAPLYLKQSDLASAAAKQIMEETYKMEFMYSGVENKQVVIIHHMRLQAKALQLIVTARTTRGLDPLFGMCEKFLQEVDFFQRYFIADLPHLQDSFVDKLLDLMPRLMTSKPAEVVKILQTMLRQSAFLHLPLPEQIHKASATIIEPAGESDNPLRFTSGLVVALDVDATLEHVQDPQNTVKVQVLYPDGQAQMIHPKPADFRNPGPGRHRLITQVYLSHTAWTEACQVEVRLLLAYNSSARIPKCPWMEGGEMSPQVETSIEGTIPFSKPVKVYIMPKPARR
UniProt Q9NV88: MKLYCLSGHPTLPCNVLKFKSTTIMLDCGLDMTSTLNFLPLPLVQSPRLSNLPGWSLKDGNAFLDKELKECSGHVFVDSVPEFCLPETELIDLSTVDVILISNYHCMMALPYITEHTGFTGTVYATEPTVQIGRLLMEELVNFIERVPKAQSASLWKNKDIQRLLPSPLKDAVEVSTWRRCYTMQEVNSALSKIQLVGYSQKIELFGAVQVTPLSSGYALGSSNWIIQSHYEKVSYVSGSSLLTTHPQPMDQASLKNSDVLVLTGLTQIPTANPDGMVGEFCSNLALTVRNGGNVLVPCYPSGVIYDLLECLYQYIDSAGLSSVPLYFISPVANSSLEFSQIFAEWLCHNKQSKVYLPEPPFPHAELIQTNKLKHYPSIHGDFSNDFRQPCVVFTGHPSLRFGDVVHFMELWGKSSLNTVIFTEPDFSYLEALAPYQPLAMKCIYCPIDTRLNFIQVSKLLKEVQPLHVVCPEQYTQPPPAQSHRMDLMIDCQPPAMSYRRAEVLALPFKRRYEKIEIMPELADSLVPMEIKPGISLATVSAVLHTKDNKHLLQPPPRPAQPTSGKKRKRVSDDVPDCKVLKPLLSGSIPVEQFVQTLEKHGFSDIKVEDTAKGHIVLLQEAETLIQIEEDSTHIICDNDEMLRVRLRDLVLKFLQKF

Tests used:
[1] = biological target: FLAG-tagged ICE1 (interactor of little elongation complex ELL subunit 1) (UniProt Q9Y2F5); assay: co-IP; anti-FLAG agarose purification from nuclear extracts (prepared with Benzonase) of cells stably expressing FLAG-tagged proteins, elution with FLAG peptide; western blotting; parental 293FRT cells as control
[2] = biological target: T1, FLAG-tagged BTBD19 (UniProt C9JJ37); assay: as above
T1 sequence: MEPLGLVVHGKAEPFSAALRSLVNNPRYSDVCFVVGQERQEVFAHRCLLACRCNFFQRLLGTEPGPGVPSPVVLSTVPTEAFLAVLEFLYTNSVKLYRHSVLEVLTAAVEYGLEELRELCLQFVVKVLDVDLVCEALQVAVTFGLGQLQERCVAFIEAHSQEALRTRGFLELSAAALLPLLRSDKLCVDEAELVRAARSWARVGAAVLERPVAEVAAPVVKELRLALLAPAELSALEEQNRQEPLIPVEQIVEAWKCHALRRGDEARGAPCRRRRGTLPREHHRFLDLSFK

[3] = biological target: FLAG-tagged AF9 (UniProt P42568); assay: as above
[4] = biological target: endogenous ICE1 (human (endogenous in HEK293T)) (UniProt Q9Y2F5); assay: co-IP; nuclear extracts of HEK293T cells with anti-ICE1 antibodies #1 or #2 or normal rabbit IgG on protein A magnetic beads, 2 h at 4 °C; wash 40 mM HEPES-NaOH pH 7.9, 0.15 M NaCl, 0.1% Triton X-100; western blotting

## Mediator subunit MED1 (from UniProt Q15648 1-1581)
[1]
  binding: binds
[2]
  binding: no binding
[3]
  binding: binds

## stem-loop-binding protein (SLBP) (from UniProt Q14493 1-270)
[1]
  binding: binds

## INTS4 (from UniProt Q96HW7 1-963)
[4]
  binding: binds

## INTS9 (from UniProt Q9NV88 1-658)
[1]
  binding: binds

B1: CPSF3 (CPSF73) (protein, UniProt Q9UKF6 1-684)
chain: MSAIPAEESDQLLIRPLGAGQEVGRSCIILEFKGRKIMLDCGIHPGLEGMDALPYIDLIDPAEIDLLLISHFHLDHCGALPWFLQKTSFKGRTFMTHATKAIYRWLLSDYVKVSNISADDMLYTETDLEESMDKIETINFHEVKEVAGIKFWCYHAGHVLGAAMFMIEIAGVKLLYTGDFSRQEDRHLMAAEIPNIKPDILIIESTYGTHIHEKREEREARFCNTVHDIVNRGGRGLIPVFALGRAQELLLILDEYWQNHPELHDIPIYYASSLAKKCMAVYQTYVNAMNDKIRKQININNPFVFKHISNLKSMDHFDDIGPSVVMASPGMMQSGLSRELFESWCTDKRNGVIIAGYCVEGTLAKHIMSEPEEITTMSGQKLPLKMSVDYISFSAHTDYQQTSEFIRALKPPHVILVHGEQNEMARLKAALIREYEDNDEVHIEVHNPRNTEAVTLNFRGEKLAKVMGFLADKKPEQGQRVSGILVKRNFNYHILSPCDLSNYTDLAMSTVKQTQAIPYTGPFNLLCYQLQKLTGDVEELEIQEKPALKVFKNITVIQEPGMVVLEWLANPSNDMYADTVTTVILEVQSNPKIRKGAVQKVSKKLEMHVYSKRLEIMLQDIFGEDCVSVKDDSILSVTVDGKTANLNLETRTVECEEGSEDDESLREMVELAAQRLYEALTPVH
[1]
  binding: binds

B2: Mediator subunit MED26 (protein, UniProt O95402 1-600)
chain: MTAAPASPQQIRDRLLQAIDPQSNIRNMVAVLEVISSLEKYPITKEALEETRLGKLINDVRKKTKNEELAKRAKKLLRSWQKLIEPAHQHEAALRGLAGATGSANGGAHNCRPEVGAAGPPRSIHDLKSRNDLQRLPGQRLDRLGSRKRRGDQRDLGHPGPPPKVSKASHDPLVPNSSPLPTNGISGSPESFASSLDGSGHAGPEGSRLERDENDKHSGKIPVNAVRPHTSSPGLGKPPGPCLQPKASVLQQLDRVDETPGPPHPKGPPRCSFSPRNSRHEGSFARQQSLYAPKGSVPSPSPRPQALDATQVPSPLPLAQPSTPPVRRLELLPSAESPVCWLEQPESHQRLAGPGCKAGLSPAEPLLSRAGFSPDSSKADSDAASSGGSDSKKKKRYRPRDYTVNLDGQVAEAGVKPVRLKERKLTFDPMTRQIKPLTQKEPVRADSPVHMEQQSRTELDKQEAKASLQSPFEQTNWKELSRNEIIQSYLSRQSSLLSSSGAQTPGAHHFMSEYLKQEESTRQGARQLHVLVPQSPPTDLPGLTREVTQDDLDRIQASQWPGVNGCQDTQGNWYDWTQCISLDPHGDDGRLNILPYVCLD
[1]
  binding: binds
[2]
  binding: no binding
[3]
  binding: binds

B3: Mediator subunit MED23 (protein, UniProt Q9ULK4 1-1368)
chain: METQLQSIFEEVVKTEVIEEAFPGMFMDTPEDEKTKLISCLGAFRQFWGGLSQESHEQCIQWIVKFIHGQHSPKRISFLYDCLAMAVETGLLPPRLVCESLINSDTLEWERTQLWALTFKLVRKIIGGVDYKGVRDLLKVILEKILTIPNTVSSAVVQQLLAAREVIAYILERNACLLPAYFAVTEIRKLYPEGKLPHWLLGNLVSDFVDTFRPTARINSICGRCSLLPVVNNSGAICNSWKLDPATLRFPLKGLLPYDKDLFEPQTALLRYVLEQPYSRDMVCNMLGLNKQHKQRCPVLEDQLVDLVVYAMERSETEEKFDDGGTSQLLWQHLSSQLIFFVLFQFASFPHMVLSLHQKLAGRGLIKGRDHLMWVLLQFISGSIQKNALADFLPVMKLFDLLYPEKEYIPVPDINKPQSTHAFAMTCIWIHLNRKAQNDNSKLQIPIPHSLRLHHEFLQQSLRNKSLQMNDYKIALLCNAYSTNSECFTLPMGALVETIYGNGIMRIPLPGTNCMASGSITPLPMNLLDSLTVHAKMSLIHSIATRVIKLAHAKSSVALAPALVETYSRLLVYMEIESLGIKGFISQLLPTVFKSHAWGILHTLLEMFSYRMHHIQPHYRVQLLSHLHTLAAVAQTNQNQLHLCVESTALRLITALGSSEVQPQFTRFLSDPKTVLSAESEELNRALILTLARATHVTDFFTGSDSIQGTWCKDILQTIMSFTPHNWASHTLSCFPGPLQAFFKQNNVPQESRFNLKKNVEEEYRKWKSMSNENDIITHFSMQGSPPLFLCLLWKMLLETDHINQIGYRVLERIGARALVAHVRTFADFLVYEFSTSAGGQQLNKCIEILNDMVWKYNIVTLDRLILCLAMRSHEGNEAQVCYFIIQLLLLKPNDFRNRVSDFVKENSPEHWLQNDWHTKHMNYHKKYPEKLYFEGLAEQVDPPVQIQSPYLPIYFGNVCLRFLPVFDIVIHRFLELLPVSKSLETLLDHLGGLYKFHDRPVTYLYNTLHYYEMHLRDRAFLKRKLVHAIIGSLKDNRPQGWCLSDTYLKCAMNAREENPWVPDDTYYCRLIGRLVDTMAGKSPGPFPNCDWRFNEFPNPAAHALHVTCVELMALAVSGKEVGNALLNVVLKSQPLVPRENITAWMNAIGLIITALPEPYWIVLHDRIVSVISSPSLTSETEWVGYPFRLFDFTACHQSYSEMSCSYTLALAHAVWHHSSIGQLSLIPKFLTEVLLPIVKTEFQLLYVYHLVGPFLQRFQQERTRCMIEIGVAFYDMLLNVDQCSTHLNYMDPICDFLYHMKYMFTGDSVKEQVEKIICNLKPALKLRLRFITHISKMEPAAVPPQAMNSGSPAPQSNQVPVSLPVTQ
[1]
  binding: binds
[2]
  binding: no binding

B4: Symplekin (protein, UniProt Q92797 1-1274)
chain: MASGSGDSVTRRSVASQFFTQEEGPGIDGMTTSERVVDLLNQAALITNDSKITVLKQVQELIINKDPTLLDNFLDEIIAFQADKSIEVRKFVIGFIEEACKRDIELLLKLIANLNMLLRDENVNVVKKAILTMTQLYKVALQWMVKSRVISELQEACWDMVSAMAGDIILLLDSDNDGIRTHAIKFVEGLIVTLSPRMADSEIPRRQEHDISLDRIPRDHPYIQYNVLWEEGKAALEQLLKFMVHPAISSINLTTALGSLANIARQRPMFMSEVIQAYETLHANLPPTLAKSQVSSVRKNLKLHLLSVLKHPASLEFQAQITTLLVDLGTPQAEIARNMPSSKDTRKRPRDDSDSTLKKMKLEPNLGEDDEDKDLEPGPSGTSKASAQISGQSDTDITAEFLQPLLTPDNVANLVLISMVYLPEAMPASFQAIYTPVESAGTEAQIKHLARLMATQMTAAGLGPGVEQTKQCKEEPKEEKVVKTESVLIKRRLSAQGQAISVVGSLSSMSPLEEEAPQAKRRPEPIIPVTQPRLAGAGGRKKIFRLSDVLKPLTDAQVEAMKLGAVKRILRAEKAVACSGAAQVRIKILASLVTQFNSGLKAEVLSFILEDVRARLDLAFAWLYQEYNAYLAAGASGSLDKYEDCLIRLLSGLQEKPDQKDGIFTKVVLEAPLITESALEVVRKYCEDESRTYLGMSTLRDLIFKRPSRQFQYLHVLLDLSSHEKDKVRSQALLFIKRMYEKEQLREYVEKFALNYLQLLVHPNPPSVLFGADKDTEVAAPWTEETVKQCLYLYLALLPQNHKLIHELAAVYTEAIADIKRTVLRVIEQPIRGMGMNSPELLLLVENCPKGAETLVTRCLHSLTDKVPPSPELVKRVRDLYHKRLPDVRFLIPVLNGLEKKEVIQALPKLIKLNPIVVKEVFNRLLGTQHGEGNSALSPLNPGELLIALHNIDSVKCDMKSIIKATNLCFAERNVYTSEVLAVVMQQLMEQSPLPMLLMRTVIQSLTMYPRLGGFVMNILSRLIMKQVWKYPKVWEGFIKCCQRTKPQSFQVILQLPPQQLGAVFDKCPELREPLLAHVRSFTPHQQAHIPNSIMTILEASGKQEPEAKEAPAGPLEEDDLEPLTLAPAPAPRPPQDLIGLRLAQEKALKRQLEEEQKLKPGGVGAPSSSSPSPSPSARPGPPPSEEAMDFREEGPECETPGIFISMDDDSGLTEAALLDSSLEGPLPKETAAGGLTLKEERSPQTLAPVGEDAMKTPSPAAEDAREPEAKGNS
[4]
  binding: binds
